# Some of the results follow. Cleavage of a single-stranded DNA pool by Rep nickase domains was read by sequencing (1 h at 37 °C, 3 µM enzyme); the outer parts of the 90-letter strands are left off. A value is the log2 ratio of uncut reads to the pool without enzyme; strong cutting gives strongly negative numbers. There is no active / inactive call. The scaling is to total reads; where an enzyme cuts many sequences, the uncut ones exceed 0.
# Tests used:
# Assay in all cases: uncleaved DNA left, log2 of reads against the no-enzyme library (log2 ratio); higher = less cleavage (more negative = more Rep cleavage of the k-mer); sequences stand for … in CTCGTCCG…ACCGGAGA
# [1] = system: T1, Rep nickase domain of Muscovy duck circovirus
# T1 sequence (Rep 1-111, printed without the tag): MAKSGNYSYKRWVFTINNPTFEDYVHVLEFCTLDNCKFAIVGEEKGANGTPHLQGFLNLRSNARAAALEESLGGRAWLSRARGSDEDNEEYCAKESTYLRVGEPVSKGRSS
# Description: (§1)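 A pool of 90-nt single-stranded DNAs with seven random bases just before the constant AC of the nick site (name = the seven bases) was cut by 3 µM recombinant His6-SUMO-tagged Rep nickase domain (300 nM DNA, 50 mM HEPES pH 8.0, 50 mM NaCl, 1 mM MnCl2, 1 h, 37 °C, three replicates). Uncut DNA was amplified and sequenced.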
# [2] = system: T2, Rep nickase domain of banana bunchy top virus
# T2 sequence (Rep 1-94, printed without the tag): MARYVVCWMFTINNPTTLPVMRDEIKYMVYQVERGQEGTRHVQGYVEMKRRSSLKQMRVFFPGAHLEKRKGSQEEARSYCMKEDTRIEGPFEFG
# Description: as §1
# [3] = system: T3, Rep nickase domain of cabbage leaf curl virus
# T3 sequence (Rep 1-116, printed without the tag): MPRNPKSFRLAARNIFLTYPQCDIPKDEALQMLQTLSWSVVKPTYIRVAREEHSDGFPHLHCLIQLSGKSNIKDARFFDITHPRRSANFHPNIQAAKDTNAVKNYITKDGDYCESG
# Description: as §1
# [4] = system: T4, Rep nickase domain of chickpea chlorotic dwarf virus
# T4 sequence (Rep 1-124, printed without the tag): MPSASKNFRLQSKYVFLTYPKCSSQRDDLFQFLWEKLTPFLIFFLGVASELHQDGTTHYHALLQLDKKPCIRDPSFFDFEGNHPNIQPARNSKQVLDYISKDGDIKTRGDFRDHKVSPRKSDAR
# Description: as §1
# [5] = system: T5, Rep nickase domain of faba bean necrotic yellows virus
# T5 sequence (Rep 1-98, printed without the tag): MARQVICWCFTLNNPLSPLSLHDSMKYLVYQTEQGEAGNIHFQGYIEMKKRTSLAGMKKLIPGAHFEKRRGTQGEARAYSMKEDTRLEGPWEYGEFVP
# Description: as §1
# [6] = system: T6, Rep nickase domain of maize striate mosaic virus
# T6 sequence (Rep 1-117, printed without the tag): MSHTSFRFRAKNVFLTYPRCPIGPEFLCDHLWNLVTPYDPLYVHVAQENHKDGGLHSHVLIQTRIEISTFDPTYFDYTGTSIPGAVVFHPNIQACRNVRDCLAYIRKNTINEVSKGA
# Description: as §1
# [7] = system: T7, Rep nickase domain of porcine circovirus 2
# T7 sequence (Rep 2-116, printed without the tag): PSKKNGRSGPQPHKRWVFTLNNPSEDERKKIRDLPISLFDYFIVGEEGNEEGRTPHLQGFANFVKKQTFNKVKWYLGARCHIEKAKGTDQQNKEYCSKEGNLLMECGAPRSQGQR
# Description: as §1
# [8] = system: T8, Rep nickase domain of tomato golden mosaic virus
# T8 sequence (Rep 1-124, printed without the tag): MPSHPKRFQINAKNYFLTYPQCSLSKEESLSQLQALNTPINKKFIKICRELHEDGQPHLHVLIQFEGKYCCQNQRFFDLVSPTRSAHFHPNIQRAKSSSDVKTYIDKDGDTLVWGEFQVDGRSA
# Description: as §1
# [9] = system: T9, Rep nickase domain of tomato yellow leaf curl virus
# T9 sequence (Rep 1-136, printed without the tag): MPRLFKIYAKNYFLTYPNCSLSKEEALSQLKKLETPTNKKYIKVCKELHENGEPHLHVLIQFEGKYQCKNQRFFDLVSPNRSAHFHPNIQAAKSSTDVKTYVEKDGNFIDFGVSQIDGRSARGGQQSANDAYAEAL
# Description: as §1
# [10] = system: T10, Rep nickase domain of wheat dwarf virus
# T10 sequence (Rep 1-137, printed without the tag): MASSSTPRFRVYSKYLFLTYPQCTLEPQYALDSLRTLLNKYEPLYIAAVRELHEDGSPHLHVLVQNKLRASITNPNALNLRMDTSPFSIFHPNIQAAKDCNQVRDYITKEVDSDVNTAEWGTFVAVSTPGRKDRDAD
# Description: as §1
Sequence,uncleaved DNA left (log2) [1],uncleaved DNA left (log2) [2],uncleaved DNA left (log2) [3],uncleaved DNA left (log2) [4],uncleaved DNA left (log2) [5],uncleaved DNA left (log2) [6],uncleaved DNA left (log2) [7],uncleaved DNA left (log2) [8],uncleaved DNA left (log2) [9],uncleaved DNA left (log2) [10]
TGGGACA,0.19,0.126,0.986,2.19,0.0701,2.37,0.246,0.189,0.0045,0.196
CAAAATG,0.246,0.0232,-0.584,-1.01,0.0992,-1.07,0.13,0.0838,0.0818,-0.0342
AGCGCAC,-0.00552,0.0163,0.075,0.356,-0.079,0.922,0.0233,-0.137,-0.169,-0.0671
TGGCGTT,0.0587,-0.046,-0.064,-0.216,-0.0569,-0.353,-0.0315,-0.175,0.0393,0.123
ATCTCTC,0.0575,-0.0719,-0.116,-0.145,-0.0671,-0.198,-0.0248,-0.166,0.0155,-0.015
CTGGGCA,0.183,0.00298,0.416,0.805,0.0124,0.559,0.104,-0.0139,-0.0941,0.0113
CTCACAT,0.0512,0.0637,0.308,-0.123,0.0471,0.11,0.149,0.00534,0.136,0.297
GATGGTA,0.0419,-0.0327,0.309,0.588,-0.00539,1.16,-0.0239,0.0329,0.123,0.0698
ATATGAC,0.00212,-0.0607,-0.0125,0.247,0.107,-0.39,0.142,0.0457,0.0434,-0.0639
AGGCTTG,0.0129,0.0113,0.182,0.582,0.154,1.01,0.232,0.219,-0.0231,-0.0527
ACACCTG,0.103,0.0718,-0.396,-0.365,0.199,-0.67,0.275,0.154,0.0677,0.0411
CGGGGAG,0.0442,0.000408,-0.0897,0.34,0.064,-0.0978,0.184,-0.0245,-0.0172,-0.0592
TAAGATC,-0.096,-0.185,-1.63,-2.59,-0.12,-0.378,-0.0305,-0.276,-0.119,-0.477
GTCAACC,0.0377,0.0861,0.293,0.534,-0.0665,1.45,-0.049,-0.039,0.0254,0.0628
TCCCAAG,0.00306,0.029,-0.712,-0.742,0.041,-1.34,0.136,0.0262,0.165,-0.0658
AGGGACG,0.12,0.124,0.0287,0.299,0.0753,0.0617,0.265,0.265,0.0819,0.0758
ACGCTAC,-0.058,-0.182,-0.591,-1.99,-0.0935,-0.679,0.00669,-0.0334,-0.05,-0.188
CGTCGCC,0.0768,-0.00038,-0.0163,0.0219,-0.0972,-0.352,0.0869,-0.0263,-0.102,-0.0187
GTTACCC,-0.0207,0.0968,0.281,0.296,-0.0513,1.4,-0.223,0.0139,0.125,0.0497
GTGCAAG,0.0397,0.0366,-0.36,-0.202,-0.00105,-0.736,0.178,-0.00274,0.062,-0.00423

Sequence,uncleaved DNA left (log2) [1],uncleaved DNA left (log2) [2],uncleaved DNA left (log2) [3],uncleaved DNA left (log2) [4],uncleaved DNA left (log2) [5],uncleaved DNA left (log2) [6],uncleaved DNA left (log2) [7],uncleaved DNA left (log2) [8],uncleaved DNA left (log2) [9],uncleaved DNA left (log2) [10]
GCCTCGT,-0.0434,-0.02,-0.0959,-0.121,-0.195,-0.457,-0.0827,-0.0747,0.00377,-0.177
GCCGACA,0.079,-0.109,0.0865,0.383,0.0473,0.363,0.000244,-0.0526,-0.111,0.0676
GGGGCTC,0.027,0.0278,0.751,1.88,-0.0742,2.23,0.14,0.004,0.0563,0.0612
TTATTAA,0.187,0.215,0.26,0.00996,0.166,0.228,0.113,0.08,0.144,0.127
ATAGATT,0.00296,-0.0357,-0.0459,-1.89,-0.0287,0.172,-0.146,-0.0993,-0.0023,-0.00745
CAGGTCC,0.128,0.189,0.249,0.441,0.166,0.44,0.118,0.194,0.148,0.189
GGCCGCC,-0.0521,0.0328,0.333,0.778,0.0219,0.939,0.0688,-0.0454,0.0427,-0.0162
GCATTTT,-2.73,-0.104,-0.298,-1.64,-0.151,-0.198,-2.96,-0.13,0.0623,-0.165
ATTCTAG,0.037,-0.0214,-0.745,-0.503,0.0325,-1.15,0.21,0.0706,0.143,0.0315
CATATAC,0.0731,0.0057,-0.152,-1.12,-0.0264,-1.04,0.119,-0.00528,0.0188,0.0195
TGATGAG,0.0571,-0.117,-0.555,-0.202,0.107,-0.963,0.0454,0.00816,0.105,-0.0314
TCCCGTG,0.0859,0.172,-0.346,-0.471,0.106,-0.689,0.151,0.0614,0.172,0.00156
AACGCCT,0.0141,-0.00782,-0.336,-2.48,0.109,-0.128,-0.263,0.0792,0.0178,0.0621
GATTCCA,-0.218,-0.113,0.329,-0.365,-0.0196,1.09,-0.548,0.0439,0.0163,0.0893
TGTACTT,-0.0586,-0.0254,0.161,-1.04,0.000407,0.913,-0.879,-0.059,0.0621,0.000434
CCGTCCG,0.29,0.143,-0.547,0.164,0.176,-0.459,0.306,0.0897,0.0685,-0.13
ACTCGTC,0.024,-0.206,-0.403,-0.398,-0.116,-0.891,0.0577,-0.1,-0.219,-0.141
GTATCCA,0.00671,0.0603,0.323,0.798,0.0395,1.61,0.0194,0.0186,0.089,0.104
CTGGTGT,-0.0444,-0.0159,-0.193,-0.593,0.09,-0.667,-0.0203,-0.0499,0.0852,-0.135
AAGGAGA,-0.0164,-0.0327,0.169,1.11,0.0895,1.08,0.0991,-0.0043,-0.27,-0.0307

Sequence,uncleaved DNA left (log2) [1],uncleaved DNA left (log2) [2],uncleaved DNA left (log2) [3],uncleaved DNA left (log2) [4],uncleaved DNA left (log2) [5],uncleaved DNA left (log2) [6],uncleaved DNA left (log2) [7],uncleaved DNA left (log2) [8],uncleaved DNA left (log2) [9],uncleaved DNA left (log2) [10]
GAGGTGT,0.144,0.0366,0.389,0.629,0.131,1.14,-0.295,0.109,0.105,0.228
ATATCAA,0.034,0.169,0.269,0.454,0.156,-0.11,0.0523,0.0103,0.094,0.263
GAATAAA,0.181,0.31,0.383,0.436,0.241,0.782,0.0847,0.318,0.25,0.21
GACCCCC,-0.129,-0.0211,0.436,0.669,0.0313,1.01,-0.29,-0.283,-0.0904,-0.0589
TAGTTTA,-0.32,-0.444,-0.348,-2.42,-0.891,-0.234,-2.87,-0.03,0.0123,0.0216
TATGCCC,-0.0298,-0.0315,-0.18,-0.535,0.00977,-0.968,0.0263,-0.0251,0.104,-0.118
TCTCAGA,0.00609,-0.105,0.11,-0.131,-0.0493,-0.606,0.0971,0.0921,-0.0451,0.0305
GTCTGCG,-0.0974,-0.0693,-0.647,-0.296,-0.0415,-0.705,0.0648,-0.137,-0.185,-0.153
CGTAATC,0.0593,0.134,0.154,0.148,-0.139,-0.341,0.0458,-0.17,0.0439,0.0529
ACGTTGC,0.112,-0.0613,-0.562,-0.132,0.0611,-0.907,0.115,0.0876,0.151,-0.00266
TACCTCG,0.0078,0.111,-0.879,-1,0.00194,-1.2,-0.845,0.00691,0.0239,-0.0197
GTGATAA,0.145,0.161,0.438,1.05,-0.0674,1.87,0.132,0.123,0.203,0.249
GGTGACG,0.0979,0.18,0.657,1.55,0.0944,1.95,0.112,0.119,-0.00901,0.127
TCCAACC,-0.212,-0.0785,-0.0448,-1.72,-0.0402,-0.463,-1.14,0.0156,-0.0617,-0.0299
GTGCCTT,-0.00235,-0.0417,0.292,0.73,-0.0716,1.48,0.0824,0.019,0.0813,0.088
TGGCTTT,0.075,-0.0354,0.5,-0.119,0.09,1.28,-0.0397,-0.047,0.207,0.193
CGCCATG,-0.174,-0.0769,-0.107,0.0445,-0.107,-0.0114,-0.0288,-0.142,0.0685,0.108
GCCCACT,-0.0601,-0.105,-0.0583,-1,-0.0465,-0.0521,-0.101,-0.074,-0.0105,0.205

# Source: the supplement of paper PMC7826260
